According to PubChem BioAssay AID1508623 (National Center for Advancing Translational Sciences (NCATS), 2021):
The campaign covered roughly 48,000 compounds. About 450 (0.94%) were called active. Roughly 19% stayed inconclusive and do not appear here. Calls come from the whole dose curve; as a rule, active = well fitted inhibition curve with a large enough effect; inconclusive = small, poorly fitted or top-dose-only effect; inactive = no such curve, though single readings can be large or run the other way. Some of the results follow.

Test: Primary qHTS for Identification of Small Molecule Inhibitors of Huntingtin Promoter Activity; note: nearly all actives have a fitted effect of over 50% in size
Settings: HEK293 HTT promoter firefly luciferase reporter (activity 0% = vehicle and -100% = no light), 24 h; series mostly up to 57.5 µM; activity change, negative = inhibition: at the top concentration
Method in brief: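 HEK293 cells carrying firefly luciferase reporters were seeded at 2,500 per well in Opti-MEM and cultured for 24 h. They were then treated with compounds at up to 57.5 uM final for 24 h at 37 degrees C before Dual-Glo luminescence readout.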

Activity change, negative = inhibition, inactive:
O=C(CCS(=O)(=O)c1cc(Br)cc2c1N(C(=O)C1CC1)CC2)NCc1ccc(Cl)cc1 -28.7%
O=C(Nc1cc(-c2nc3ccccc3o2)ccc1Cl)c1ccc(N2CCCCC2)c([N+](=O)[O-])c1 46.9%
CCN(Cc1ccncc1)C(=O)C(CO)c1ccccc1 (centres undefined) -2.43%
CN(C)CCOC1=Cc2ccccc2Sc2ccc(Cl)cc21 -7.18%
Cc1ccc(NC(=O)Cn2cc(S(=O)(=O)c3ccc(C)cc3)c(=O)c3cc4c(cc32)OCO4)cc1 -18.7%
Cc1ccc(-c2nc(SCCOc3ccccc3C)n3[nH]c(=O)cc3n2)cc1 -2.31%
CCc1ccccc1N(CC)C(=O)c1c(C)oc2ncnc(N3CCOCC3)c12 0.839%
CCOC(=O)C1CCN(c2nc3c(S(=O)(=O)c4ccccc4)nnn3c3ccsc23)CC1 -3.32%
COc1ccc(NC(=O)Nc2nnc(C)s2)cc1 31.2%
Cc1ccccc1C(=O)Nc1ccc(OCc2cc(=O)n3cccc(C)c3n2)cc1 -1.46%
CC1=C(c2ccc(C)c(C)c2)S(=O)(=O)N=C1N1CCC(C(=O)N2CCC(C(N)=O)CC2)CC1 -8.25%
O=c1c2oc3ccccc3c2n(Cc2ccc(Cl)cc2)c(=O)n1Cc1ccco1 -19.7%
O=C1COc2cc(S(=O)(=O)NCc3ccco3)c(Cl)cc2N1 -1.83%
Cc1cccc(CN2CCC(CNC(=O)c3c(C)oc4ncnc(N5CCCCC5)c34)CC2)c1 -3.44%
CC(=O)N1CCOc2cc(S(=O)(=O)NC(C)c3ccccc3)c(Cl)cc21 (centres undefined) -15.1%
CCN(CC)CCNC(=O)c1c(C)oc2ncn(C)c(=O)c12 10.3%
CCN(CC)CC#CCOC(=O)C(O)(c1ccccc1)C1CCCCC1 (centres undefined) -0.97%
Cc1oc2ccc(O)c(CN(C)Cc3ccccc3)c2c1C(=O)Nc1ccccc1 -16.7%
Cn1cnc(S(=O)(=O)N2CCC(C(=O)NCc3ccccc3Cl)CC2)c1 -5.35%
CCN(c1ccccc1)c1nnc(NC(=O)Nc2ccc(Br)cc2)s1 21.2%
Cc1ncc([N+](=O)[O-])n1CCO
COc1cccc(NC(=O)CSc2nc3ccc(NC(=O)c4cccs4)cc3s2)c1 -6.63%
Cc1ccc(NC(=O)Nc2nnc(N3CCCC3)s2)cc1 13.9%
CCOC(=O)c1c(NC(=O)/C=C/c2ccc(C(C)C)cc2)sc2c1CCC2 -5.09%
COC(=O)Nc1nc2ccc(C(=O)C3CC3)cc2[nH]1 -0.821%
CNS(=O)(=O)c1cn(CC(=O)N2CCN(c3ccccc3F)CC2)cc1S(=O)(=O)NC 1.79%
CCc1ccc(OC(C)c2nc(-c3ccc(-n4cccc4)cc3)no2)cc1 (centres undefined) -17.3%
OC(CCN1CCCCC1)(c1ccccc1)C1CC2C=CC1C2 (centres undefined)
O=S(=O)(NCc1csc(-c2ccccc2)n1)c1cccc(F)c1 -9.05%
Cc1ccc(CN(Cc2ccco2)C(=O)COc2ccccc2C)cc1 -24.8%
CCOC(=O)c1ccc(NC(=O)CCc2c(C)nc3c(c(C)nn3-c3ccccc3)c2C)cc1 -11.1%
CC(=O)c1ccc(NC(=O)CCc2c(C)nc3c(c(C)nn3-c3ccc(C)cc3)c2C)cc1 32.8%
COc1ccccc1NC(c1ccc(Cl)cc1)c1nnc(-c2cccc(F)c2)o1 (centres undefined) -18.3%
Cc1nn2c(=O)cc(CN(C)c3ccccc3)nc2s1 -10%
O=C(COc1ccccc1Cl)Nc1cc(-c2ccccc2F)nn1-c1ccccc1 3.31%
Cc1cc(C)cc(NC(=O)CN(c2cc(C(F)(F)F)ccc2Cl)S(=O)(=O)c2ccccc2)c1 -28.9%
O=C(CCS(=O)(=O)c1nc(-c2cccs2)cc(C(F)(F)F)n1)Nc1ccc(OC(F)(F)F)cc1 -3.15%
COc1ccc(C2c3c(oc4ccccc4c3=O)C(=O)N2Cc2ccc3c(c2)OCO3)cc1 (centres undefined) -2.22%
COC(=O)c1ccccc1NC(=O)C1=CC(c2ccc(C)cc2)=NS(=O)(=O)N1C -8.74%
COc1ccc(OC)c(NC(=O)c2cc3c(n(-c4ccc(Cl)cc4)c2=O)CC(C)(C)CC3=O)c1 -12.6%
O=C(CN1CCN(Cc2ccc(F)cc2)C1=O)NCc1ccccc1Cl -5.77%
COc1cccc(-c2nn(C)c3sc(C(=O)NCc4cc(OC)ccc4OC)cc23)c1 -26.9%
CCN(CC)CCSC(=O)C(c1ccccc1)c1ccccc1 8.29%
C#CCN(C)Cc1ccccc1 6.61%
CCN1c2ccccc2-n2cccc2C12CCN(C(=O)Nc1ccccc1C(F)(F)F)CC2 -12.3%
CCOc1ccc(OCC)c(NC(=O)C2CCCN(S(=O)(=O)c3ccc4c(c3)oc(=O)n4C)C2)c1 (centres undefined) -5.91%
CCOc1ccc(CNC(=O)Cn2c(=O)c3cccn3c3ccc(F)cc32)cc1 -0.513%
Cc1cccc(-c2nc(SCCCOc3ccccc3Cl)n3[nH]c(=O)cc3n2)c1 -4.27%
Cc1cc(C)cc(-n2c(SCC(=O)N3CCc4ccccc43)nc3c([nH]c4ccccc43)c2=O)c1 -10.2%
Cn1nc(C(=O)N2CCN(c3ccc(Cl)cc3)CC2)c2c1-c1ccccc1SC2 -15.4%
Cc1ccc(NC(=O)Cn2nnnc2-c2ccccc2N)cc1 -1.72%
O=c1c2cc3c(cc2nc2sc(Nc4ccc(F)cc4F)nn12)OCO3 7.5%
c1ccc(CNc2nc3ccccc3c3nc(-c4ccccc4)nn23)cc1 1.21%
Cn1c(=O)c2nc(SCC(=O)Nc3cc(Cl)ccc3Cl)n(C)c2n(C)c1=O -7.83%
NC(=O)CSc1nc2c(oc3ccccc32)c(=O)n1-c1ccccc1F -18.9%
COc1cccc(CNC(=O)CSc2ccc(-c3sc(-c4ccccc4)nc3C)nn2)c1 -30%
COc1ccc(Cl)cc1NC(=O)N1CCC(CN2CCc3ccccc3C2)CC1 -26.9%
CCOc1ccc(C(=O)NCC(c2ccco2)S(=O)(=O)c2ccc(C)cc2)cc1 (centres undefined) -12.5%
CCc1ccc(-n2nc3cc(C)c(NC(=O)c4cc(Cl)ccc4OC)cc3n2)cc1 -9.13%
COc1ccc(NS(=O)(=O)c2cc3[nH]c(=O)c(=O)[nH]c3cc2C)cc1OC -20.2%
Cc1ccc2c(=O)cc(C(=O)Nc3sc4c(c3C(=O)NCc3ccco3)CCC4)oc2c1C 13.2%
COc1ccc(Nc2cc(C(=O)NCCc3ccccc3)c3ccccc3n2)cc1OC -8.06%
CCCN(C(=O)Cn1ncc2c(=O)oc3ccccc3c21)c1cccc(C)c1 -2.94%
Cc1ccc(CNC(=O)Cn2ncc3c(C)n(Cc4ccc(Cl)cc4)c(C)c3c2=O)cc1 -3.04%
CCC(C)NC(=O)Cn1c(=O)n(Cc2ccc(C(=O)NCCCOC)cc2)c(=O)c2ccccc21 (centres undefined) -5.69%
Cc1ccc(NC(=O)c2c(N3CCCC3=O)c3cc(C)ccc3n2C)c(C)c1 -16.3%
Cc1ccc(Cl)c2sc(N3CCN(C(=O)C4CC4)CC3)nc12 0%
CC(C)c1ccc(NC(=O)CSc2ncc3c(n2)-c2ccccc2N(C)S3(=O)=O)cc1 -30.5%
CSc1ccc(CNCc2c(C(=O)O)c(C)n(Cc3ccc(F)cc3Cl)c2C)cc1 -18.1%
Cc1ccccc1CNC(=O)c1c(C)oc2c1C1=NCCN1C=N2 9.64%
Cc1ccccc1Cn1cc(S(=O)(=O)c2ccc(Cl)cc2)c(=O)c2cc3c(cc21)OCO3 -8.05%
Cc1c(NC(=O)c2nc3ccccc3n(C)c2=O)cccc1[N+](=O)[O-] 11.1%
O=C1[C@@H]2CSC(c3ccc(F)cc3)N2C(=O)N1c1ccc(Cl)cc1 (some centres undefined) -34.6%
CCc1ccc(-n2c(=O)c3c4c(sc3n(Cc3ccc(F)cc3)c2=O)CCCC4)cc1 13.1%
COc1ccc(CNC(=O)c2cccc(N3CCCS3(=O)=O)c2)cc1 -31.6%
O=C(Cn1c(=O)n2nc(-c3ccccc3)nc2c2ccccc21)Nc1ccccc1C(F)(F)F -5.28%
Nc1ncc(S(=O)(=O)NCc2cccc(Cl)c2)cn1 -1.53%
Cc1ccc2oc(=O)c3cnn(CC(=O)NCc4ccccc4Cl)c3c2c1 7.76%
O=C(O)CCC(=O)OC[C@@H](NC(=O)C(Cl)Cl)[C@H](O)c1ccc([N+](=O)[O-])cc1 -4.89%
Cc1ccc(-c2nc(CCNC(=O)C(=O)Nc3ccc(C)c(C)c3)cs2)cc1 -4.09%
COc1ccc2cc(CCC(C)=O)ccc2c1 33.2%
COc1ccc(NC(=O)c2ccc3nc(CCc4ccccc4)oc3c2)cc1 40.5%
CS(=O)(=O)c1ccc2nc(NC(=O)CS(=O)(=O)c3ccc(Cl)cc3)sc2c1 -22.3%
CCOC(=O)CNC(=O)Nc1cc(C(=O)NCc2cccc(F)c2)ccc1N1CCCC1 -6.59%
COc1ccccc1NC(=O)C1CCCN(c2nnc(C)c3c(C)n(-c4ccccc4)nc23)C1 (centres undefined) -10.6%
CCCCCC(C)N (centres undefined) 8.59%
O=C(NCC(c1cccnc1)N1CCc2ccccc21)c1ccccc1Br (centres undefined) -30%
CCCN(CCC)C(=O)Cn1c(=O)n(-c2cccc(C(F)(F)F)c2)c(=O)c2c(C)c(C)sc21 -7.69%
O=C(Cn1c(=O)n(Cc2ccco2)c(=O)c2cccnc21)Nc1ccccc1F -10.3%
O=C(Nc1ccc2nc(SCC(=O)N3CCCC3)sc2c1)c1ccccc1 3.26%
CCOc1cc(C(=O)Nc2ccc(-c3nc4cc(C)ccc4o3)cc2)cc(OCC)c1OCC -6.75%
Cc1ccc(OCC(=O)Nc2c(C(=O)c3ccccc3)oc3ccccc23)cc1C 10.2%
COc1ccc(CNC(=O)Cn2c(SCC(=O)N(C)c3ccccc3)nc3ccccc32)cc1 -3.2%
CCOC(=O)c1noc2nc(C)n(CC(=O)Nc3cc(Cl)ccc3OC)c(=O)c12 -13.8%
COc1cc(C(=O)Nc2ccc3nn(-c4ccc(F)cc4)nc3c2)cc(OC)c1OC 0.682%
CCCCn1c(=O)n(-c2ccc(Br)cc2F)c(=O)c2c3c(sc21)CN(C(C)=O)CC3 -25.9%
Cc1ccc(CNC(=O)C2CCN(S(=O)(=O)N3CCC(C)CC3)CC2)cc1 -4.01%
Oc1c(C(c2ccccc2)N2CCN(Cc3ccccc3)CC2)sc2nc(-c3ccco3)nn12 (centres undefined) -32.9%
COc1cc(Cl)c(C)cc1NC(=O)CCc1nc2cccnc2n1-c1ccccc1 -15.1%
